In PubChem BioAssay AID360 (National Center for Advancing Translational Sciences (NCATS), 2006) one finds Potency data, which are given here for 59 compounds.

The whole screen tested about 48,000 compounds, of which about 550 (1.1%) were called active. Roughly 4% stayed inconclusive and do not appear here. No stated cut-off is given here; in the data, active means potency below about 15 µM; inconclusive means mostly about 16 µM to 33 µM; inactive means weaker than that. The list shows a part of the results.
Potency means the concentration at half of the fitted maximal effect.

The target in the assay is Lysosomal acid glucosylceramidase (Homo sapiens) (UniProt P04062). As to the kind of experiment: Glucocerebrosidase.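 Further: the screen sought inhibitors.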 Particulars: purified enzyme, resorufin glucoside fluorescence (screen aimed at inhibitors), 20 min. In outline: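 Wild-type enzyme at 0.2 nM final in 50mM citric acid/KH2PO4, 10mM sodium taurocholate, 0.01% tween-20, pH 5.9, with resorufin beta-D-glucopyranoside at 30 uM final. Compounds titrated, 20 min at RT, red fluorescence read; AC50 from titration.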
UniProt P04062, sequence (P04062 whole entry, looked up): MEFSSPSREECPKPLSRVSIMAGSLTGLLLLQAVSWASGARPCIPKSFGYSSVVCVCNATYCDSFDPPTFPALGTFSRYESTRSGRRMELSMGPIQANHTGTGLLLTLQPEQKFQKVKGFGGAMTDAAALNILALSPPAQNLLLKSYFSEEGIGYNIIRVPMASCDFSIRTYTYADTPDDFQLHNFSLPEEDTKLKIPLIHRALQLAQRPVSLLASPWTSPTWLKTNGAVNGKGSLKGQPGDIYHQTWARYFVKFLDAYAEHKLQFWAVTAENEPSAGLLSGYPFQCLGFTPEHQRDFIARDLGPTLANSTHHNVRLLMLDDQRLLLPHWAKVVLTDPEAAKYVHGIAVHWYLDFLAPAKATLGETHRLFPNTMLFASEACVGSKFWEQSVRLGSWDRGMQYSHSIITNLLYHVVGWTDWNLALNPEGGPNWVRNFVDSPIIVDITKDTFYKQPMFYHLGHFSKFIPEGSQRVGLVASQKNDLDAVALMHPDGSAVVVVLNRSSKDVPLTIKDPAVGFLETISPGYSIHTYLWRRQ
For the compound `CCc1nc(N2CCCCC2)c2oc3ccccc3c2n1`, the Potency was inactive: > 76.9 µM.

In the case of `COc1ccccc1Cc1noc(-c2cc(Cl)ccc2OC)n1`, the Potency was inactive: > 76.9 µM.

On to `CCSc1nnc(Nc2ccccc2)s1`, for which the Potency is inactive: > 76.9 µM.

In the case of `CC(=O)c1c(C)n(CC(=O)NCc2ccc3c(c2)OCO3)c2ccccc12`, the Potency is inactive: > 76.9 µM.

Take `CC(C)NC(=O)c1ccc2c(=O)n(C3CCCC3)c(=S)[nH]c2c1`: the Potency was inactive: > 76.9 µM.

For `O=C(CN1CCOCC1)OCCCC1CCCCC1`, the Potency was inactive: > 76.9 µM.

As to `CCC(C)(C)NC(=O)CC(c1ccc(OC)cc1)n1cccc1` (centres undefined), the Potency was inactive: > 76.9 µM.

`COc1ccc(NC(=O)c2ccc3c(=O)n(Cc4ccco4)c(=S)[nH]c3c2)c(OC)c1`: the Potency was inactive: > 76.9 µM.

As to `CCOc1cc2[nH]c(=O)n(CCCN3CCCC3=O)c(=O)c2cc1OCC`, the Potency is inactive: > 76.9 µM.

As to `Cc1ccc2nc(Nc3ncc4c(n3)CCCC4=O)nc(C)c2c1`, the Potency is inactive: > 76.9 µM.

Consider `CCN1C(=O)C(CC(=O)NCc2ccc(Cl)cc2)N(CC)C1=O` (centres undefined), for which the Potency was inactive: > 76.9 µM.

As for `CC12CC(NC(=O)N1c1cccc(C(=O)N3CCN(c4ccccc4F)CC3)c1)c1ccccc1O2` (centres undefined), the Potency was inactive: > 76.9 µM.

Turning to `Cc1cccc(C)c1NC(=O)C1(N2CCN(C(=O)c3ccco3)CC2)CCCCC1`, the Potency was inactive: > 76.9 µM.

With `O=C(NCCCN1CCN(c2ccccc2F)CC1)C1CCN(S(=O)(=O)c2cccs2)CC1`, the Potency was inactive: > 76.9 µM.

On to `O=C(COC(=O)c1ccc(S(=O)(=O)NCc2ccco2)cc1)NCCC1=CCCCC1`, for which the Potency was inactive: > 76.9 µM.

As to `Cc1nnc(SCC(=O)NC(C)(C)C)n1CCc1ccccc1`, the Potency is inactive: > 76.9 µM.

On to `CCCc1cc(=O)n2[nH]c(C)cc2n1`, for which the Potency is inactive: > 76.9 µM.

Consider `Cc1cc(C)nc(-n2nc(C)cc2Nc2ccccc2)n1`, for which the Potency is inactive: > 76.9 µM.

On to `OCCN1CCN(c2nc(-c3ccccc3)nc3c2oc2ccccc23)CC1`, for which the Potency result is “inactive”.

For `CCOc1ccc2nc(-c3ccccc3)[nH]c2c1`, the Potency result was “inactive”.

Turning to `Cn1c(CCN2CCCCC2)nc2cc(NS(=O)(=O)c3ccc(F)cc3)ccc21`, the Potency was inactive: > 76.9 µM.

On to `Cc1ccc(C)c(S(=O)(=O)NC(CCC(N)=O)C(=O)O)c1` (centres undefined), for which the Potency is inactive: > 76.9 µM.

As to `O=C1OC2(CCCCC2)OC(=O)C1=CNc1nccs1`, the Potency is inactive: > 76.9 µM.

On to `CCN(C(=O)CN1CCN(c2ccc(OC)cc2)CC1)c1c(N)n(Cc2ccccc2)c(=O)[nH]c1=O`, for which the Potency was inactive: > 76.9 µM.

With `COC(=O)Cc1[nH]nc2c1C1(CCSCC1)C(C#N)=C(N)O2`, the Potency is inactive: > 76.9 µM.

For `COc1ccccc1C(c1nnnn1C(C)(C)C)N1CCCCCC1` (centres undefined), the Potency was inactive: > 76.9 µM.

Turning to `COc1n[nH]c2nncnc12`, the Potency was inactive: > 76.9 µM.

Turning to `Cc1[nH]c2ccc(F)cc2c(=O)c1SC(F)(F)C(F)F`, the Potency was active: 9.46 µM.

With `Cc1csc(NC(=O)c2c(O)c3cccc4c3n(c2=O)CCC4)n1`, the Potency is inactive: > 76.9 µM.

Take `Cc1cc(C)c(C#N)c(SCC(=O)OC2CCCCC2)n1`: the Potency was inactive: > 76.9 µM.

Turning to `O=c1cc(Nc2ccc3c(c2)OCCO3)[nH]c(=O)n1C1CCCCC1`, the Potency was inactive: > 76.9 µM.

In the case of `O=C(CCCNS(=O)(=O)c1cccc2nsnc12)N1CCCCC1`, the Potency was inactive: > 76.9 µM.

For the compound `Cc1ccccc1-c1nc(CN2CCC(C(=O)NCCCN3CCOCC3)CC2)c(C)o1`, the Potency is inactive: > 76.9 µM.

As to `CC1=CC(C)C2C(=O)N(CCC[N+](C)(C)C)C(=O)C2C1` (centres undefined), the Potency was inactive: > 76.9 µM.

With `COc1ccccc1-c1cc(C(F)(F)F)nc(N2CCN(c3ccccc3)CC2)n1`, the Potency was inactive: > 76.9 µM.

As to `COc1ccc(-n2c(=O)cc(N3CCCCCC3)[nH]c2=O)cc1`, the Potency was inactive: > 76.9 µM.

As to `Cc1ccc(OCCN2CCN(C(=O)CCC(=O)Nc3nnc(C)s3)CC2)cc1`, the Potency is inactive: > 76.9 µM.

In the case of `CC(C)OC(=O)CSc1nnnn1-c1ccc2c(c1)OCCO2`, the Potency is inactive: > 76.9 µM.

With `Cc1ccc(C)c(NC(=O)c2ccccn2)c1`, the Potency was inactive: > 76.9 µM.

As for `COC(=O)c1ccccc1OC(=O)c1ccc(Br)o1`, the Potency is inactive: > 76.9 µM.

With `COc1cc(OC)c(OC)cc1CN(C)CCc1ccccn1`, the Potency is active: 15.1 µM.

On to `CCn1c(C)nc2cc(C(=O)OCCC(F)(F)F)ccc21`, for which the Potency is active: 10.7 µM.

As for `CCOc1cccc(/C(O)=C2/C(=O)C(=O)N(CCOC)C2c2ccco2)c1` (centres undefined), the Potency was inactive: > 76.9 µM.

Consider `CC(C)CCNC(=O)NC(=O)CSc1nnc(-c2ccccc2F)n1N`, for which the Potency is inactive: > 76.9 µM.

On to `Cc1c(C)c2cc(Cl)c(O)c(CN(C)C)c2oc1=O`, for which the Potency is inactive: > 76.9 µM.

For the compound `COc1ccc2c(c1)c(C(=O)OCCN(C)C)c(C)n2C`, the Potency is inactive: > 76.9 µM.

Regarding `COC(=O)c1cn(NC(=O)C2CCCO2)c(=O)c2ccccc12` (centres undefined), the Potency is inactive: > 76.9 µM.

For the compound `CC(C)C(=O)Nc1cccc(C(=O)NCc2ccc3c(c2)OCO3)c1`, the Potency is inactive: > 76.9 µM.

For the compound `COc1ccc(CCNC(=O)COC(=O)c2cnc(C)cn2)cc1OC`, the Potency was inactive: > 76.9 µM.

As for `Cc1sc2ncnc(SCc3ccco3)c2c1C`, the Potency was inactive: > 76.9 µM.

Consider `CC1CC(C)CN(CCCNC(=O)c2ccc(CS(=O)(=O)Cc3ccccc3F)o2)C1` (centres undefined), for which the Potency was inactive: > 76.9 µM.

For the compound `Cc1cc(C)cc(OCc2nnc(SCC(=O)c3ccccc3)o2)c1`, the Potency is inactive: > 76.9 µM.

In the case of `CCOC(=O)c1sc2ncn(C(CC)C(=O)OCC)c(=O)c2c1C` (centres undefined), the Potency was inactive: > 76.9 µM.

Take `Cc1nn(-c2ccccc2)c2[nH]c(=O)c(CNCCN3CCOCC3)cc12`: the Potency is inactive: > 76.9 µM.

In the case of `CCOC(=O)C1CCCN(C(=O)c2ccccc2SCCOC)C1` (centres undefined), the Potency was inactive: > 76.9 µM.

As for `CCS(=O)(=O)N1CCC(C(=O)NCCCN2CCC(Cc3ccccc3)CC2)CC1`, the Potency is inactive: > 76.9 µM.

As to `COc1cccc(C(C(=O)NCc2ccco2)N(C(=O)Cn2nnc3ccccc32)C2CC2)c1OC` (centres undefined), the Potency was inactive: > 76.9 µM.

`Cc1ccc(-c2cnc(NC(=O)CCC(=O)N3CCCCC3)n2C)cc1`: the Potency is inactive: > 76.9 µM.

Consider `CC(C)N(CCCNC(=O)C1CCN(S(=O)(=O)N2CCOCC2)CC1)Cc1ccccc1`, for which the Potency was inactive: > 76.9 µM.
